# Results reported in a collection of fitness landscapes (doi:10.1126/science.1257360).
# This is one part of the list.
# B1: PhoQ; a variant is named by its letters at X, in order, P23837 (parent)
# chain: MKKLLRLFFPLSLRVRFLLATAAVVLVLSLAYGMVALIGYSVSFDKTTFRLLRGESNLFYTLAKWENNKLHVELPENIDKQSPTMTLIYDENGQLLWAQRDVPWLMKMIQPDWLKSNGFHEIEADVNDTSLLLSGDHSIQQQLQEVREDDDDAEMTHSVAVNVYPATSRMPKLTIVVVDTIPVELKSSYMVWSWFIYVLSANLLLVIPLLWVAAWWSLRPIEALAKEVRELEEHNRELLNPATTRELTSLVRNLNRLLKSERERYDKYRTTLTDLTHSLKTPLXXLQXXLRSLRSEKMSVSDAEPVMLEQISRISQQIGYYLHRASMRGGTLLSRELHPVAPLLDNLTSALNKVYQRKGVNISLDISPEISFVGEQNDFVEVMGNVLDNACKYCLEFVEISARQTDEHLYIVVEDDGPGIPLSKREVIFDRGQRVDTLRPGQGVGLAVAREITEQYEGKIVAGESMLGGARMEVIFGRQHSAPKDE
# Variants of: B1
# Assay: enrichment ratio after two sorts for PhoP signalling (ratio (wild type AVST 3.29)); higher = more functional
# Settings: with PhoP (E. coli)
row,Variant,enrichment ratio
1,KLPI,≤ 0.25
2,KILY,≤ 0.25
3,FFFS,≤ 0.25
4,INLD,≤ 0.25
5,VVYQ,≤ 0.25
6,NADN,≤ 0.25
7,VYQM,≤ 0.25
8,DCCT,≤ 0.25
9,WDVS,≤ 0.25
10,YHWL,≤ 0.25
11,YSGQ,≤ 0.25
12,LVNY,≤ 0.25
13,FVPN,≤ 0.25
14,RCRW,≤ 0.25
15,NAIR,≤ 0.25
16,LMPY,≤ 0.25
17,FAEY,≤ 0.25
18,FLEI,≤ 0.25
19,ANAE,≤ 0.25
20,DRGI,≤ 0.25
21,KNMF,≤ 0.25
22,RRTK,≤ 0.25
23,GPHH,≤ 0.25
24,NKSK,≤ 0.25
25,NWND,≤ 0.25

row,Variant,enrichment ratio
1,IVTD,≤ 0.25
2,AMSF,6.43
3,DCDV,≤ 0.25
4,QMYN,≤ 0.25
5,YGKP,≤ 0.25
6,IVRD,≤ 0.25
7,NFLK,≤ 0.25
8,DLCD,≤ 0.25
9,WRVH,≤ 0.25
10,LNNQ,≤ 0.25
11,KCWV,≤ 0.25
12,TARK,≤ 0.25
13,YPSW,≤ 0.25
14,EEPG,≤ 0.25
15,TWII,≤ 0.25
16,VVKW,≤ 0.25
17,PHYL,≤ 0.25
18,GDVH,2.07
19,IPQM,≤ 0.25
20,AIQR,≤ 0.25
21,FHNA,≤ 0.25
22,WNVN,≤ 0.25
23,IPYF,≤ 0.25
24,ELGH,≤ 0.25
25,VSRY,≤ 0.25

row,Variant,enrichment ratio
1,RAGN,≤ 0.25
2,NQRS,≤ 0.25
3,MNVD,≤ 0.25
4,PWAL,≤ 0.25
5,KFYR,≤ 0.25
6,TFIL,≤ 0.25
7,TEPV,≤ 0.25
8,PFLD,≤ 0.25
9,WEPY,≤ 0.25
10,LDGE,≤ 0.25
11,HLWW,≤ 0.25
12,FSGW,≤ 0.25
13,EHPC,≤ 0.25
14,FEPA,≤ 0.25
15,AKVR,≤ 0.25
16,CYVR,≤ 0.25
17,IEMY,≤ 0.25
18,KKPM,≤ 0.25
19,LKIV,≤ 0.25
20,LNIT,≤ 0.25
21,IELF,≤ 0.25
22,HTED,≤ 0.25
23,FTCD,≤ 0.25
24,FERR,≤ 0.25
25,RNYM,≤ 0.25

row,Variant,enrichment ratio
1,PHVF,≤ 0.25
2,ALCT,10.9
3,LMFI,≤ 0.25
4,WFNQ,≤ 0.25
5,LFFE,≤ 0.25
6,TAQP,≤ 0.25
7,DWTQ,≤ 0.25
8,SVCR,7.88
9,EYDR,≤ 0.25
10,FFSN,≤ 0.25
11,TESP,≤ 0.25
12,EIFY,≤ 0.25
13,LAQY,≤ 0.25
14,RFWL,≤ 0.25
15,LKSH,≤ 0.25
16,KCRE,≤ 0.25
17,PKYA,≤ 0.25
18,HPNP,≤ 0.25
19,TLPF,≤ 0.25
20,NCVL,≤ 0.25
21,DSVT,1.06
22,ESTR,≤ 0.25
23,PPWA,≤ 0.25
24,NRWV,≤ 0.25
25,WTHP,≤ 0.25

row,Variant,enrichment ratio
1,VAPG,≤ 0.25
2,ASQW,≤ 0.25
3,LLIP,≤ 0.25
4,ACQP,≤ 0.25
5,TTCM,24.5
6,KAVI,≤ 0.25
7,RNRC,≤ 0.25
8,INMG,≤ 0.25
9,NKDI,≤ 0.25
10,LTIA,≤ 0.25
11,TISC,15
12,PDMS,≤ 0.25
13,DEAG,≤ 0.25
14,CISR,≤ 0.25
15,IMAF,≤ 0.25
16,LVEL,≤ 0.25
17,ELMV,≤ 0.25
18,LFFM,≤ 0.25
19,KTSI,≤ 0.25
20,TFHS,≤ 0.25
21,YDVW,≤ 0.25
22,SPPP,≤ 0.25
23,KKYN,≤ 0.25
24,HCKA,≤ 0.25
25,RSDF,≤ 0.25

row,Variant,enrichment ratio
1,QLTG,≤ 0.25
2,GEPP,≤ 0.25
3,RNIE,≤ 0.25
4,AEDD,≤ 0.25
5,TQPL,≤ 0.25
6,RWLG,≤ 0.25
7,NNKA,≤ 0.25
8,YAFF,≤ 0.25
9,YLRY,≤ 0.25
10,IWTC,≤ 0.25
11,AFMP,≤ 0.25
12,QPAI,≤ 0.25
13,YQEP,≤ 0.25
14,VLEG,≤ 0.25
15,VPMS,≤ 0.25
16,NIGS,≤ 0.25
17,LYRS,≤ 0.25
18,MPAT,≤ 0.25
19,TYPE,≤ 0.25
20,ADKG,≤ 0.25
21,LFKV,≤ 0.25
22,YLFW,≤ 0.25
23,IYTW,≤ 0.25
24,AQAG,9.01
25,NLAR,≤ 0.25

row,Variant,enrichment ratio
1,TNEN,≤ 0.25
2,LHAD,≤ 0.25
3,VPCH,≤ 0.25
4,TWLM,≤ 0.25
5,RQFM,≤ 0.25
6,DHQT,≤ 0.25
7,LVFG,≤ 0.25
8,PLMD,≤ 0.25
9,VWKW,≤ 0.25
10,KNAQ,≤ 0.25
11,MFKD,≤ 0.25
12,EDIM,≤ 0.25
13,HSES,≤ 0.25
14,LVFR,≤ 0.25
15,YGFV,≤ 0.25
16,KSGM,≤ 0.25
17,VSLS,2.58
18,TKYE,≤ 0.25
19,TIFC,≤ 0.25
20,VQGS,≤ 0.25
21,LMCK,≤ 0.25
22,TEWA,38.4
23,EEIE,≤ 0.25
24,MMDM,≤ 0.25
25,QMDQ,≤ 0.25

row,Variant,enrichment ratio
1,QLVP,≤ 0.25
2,IPVS,≤ 0.25
3,SQYT,≤ 0.25
4,AFHT,≤ 0.25
5,NLRA,≤ 0.25
6,TLWD,≤ 0.25
7,GDAM,≤ 0.25
8,MVGV,≤ 0.25
9,RQIC,≤ 0.25
10,HNTP,≤ 0.25
11,RAYM,≤ 0.25
12,KGVH,≤ 0.25
13,MWMF,≤ 0.25
14,FLYA,≤ 0.25
15,GGIM,13.9
16,VIPF,≤ 0.25
17,ADVV,8.21
18,IITQ,≤ 0.25
19,HMYC,≤ 0.25
20,NMSP,≤ 0.25
